# From PubChem BioAssay AID488969 (Vanderbilt High Throughput Screening Facility, 2010)
# In all, about 110,000 compounds were measured (“z-score”: median about -0.1, highest 2% from about 2 on). The list shows a part of the results. The source made the active and inactive calls.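 Rule for the calls: active = z-score in the third read window above 3 or below -3; inactive = the rest.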
# Target: Metabotropic glutamate receptor 8 (Rattus norvegicus) (UniProt P70579)
# Assay: mGluR8 Gi/Go-coupled signaling modulation – cell-based, rat, thallium flux, HTS, primary screen (AID 488969)
# Conditions: HEK293 rat mGluR8, GIRK (G protein-gated inwardly rectifying potassium channel) thallium flux, FluoZin2; at 10 µM; stronger effect = higher value; submaximal glutamate (EC20) added with thallium
# UniProt P70579, sequence (P70579 whole entry, looked up): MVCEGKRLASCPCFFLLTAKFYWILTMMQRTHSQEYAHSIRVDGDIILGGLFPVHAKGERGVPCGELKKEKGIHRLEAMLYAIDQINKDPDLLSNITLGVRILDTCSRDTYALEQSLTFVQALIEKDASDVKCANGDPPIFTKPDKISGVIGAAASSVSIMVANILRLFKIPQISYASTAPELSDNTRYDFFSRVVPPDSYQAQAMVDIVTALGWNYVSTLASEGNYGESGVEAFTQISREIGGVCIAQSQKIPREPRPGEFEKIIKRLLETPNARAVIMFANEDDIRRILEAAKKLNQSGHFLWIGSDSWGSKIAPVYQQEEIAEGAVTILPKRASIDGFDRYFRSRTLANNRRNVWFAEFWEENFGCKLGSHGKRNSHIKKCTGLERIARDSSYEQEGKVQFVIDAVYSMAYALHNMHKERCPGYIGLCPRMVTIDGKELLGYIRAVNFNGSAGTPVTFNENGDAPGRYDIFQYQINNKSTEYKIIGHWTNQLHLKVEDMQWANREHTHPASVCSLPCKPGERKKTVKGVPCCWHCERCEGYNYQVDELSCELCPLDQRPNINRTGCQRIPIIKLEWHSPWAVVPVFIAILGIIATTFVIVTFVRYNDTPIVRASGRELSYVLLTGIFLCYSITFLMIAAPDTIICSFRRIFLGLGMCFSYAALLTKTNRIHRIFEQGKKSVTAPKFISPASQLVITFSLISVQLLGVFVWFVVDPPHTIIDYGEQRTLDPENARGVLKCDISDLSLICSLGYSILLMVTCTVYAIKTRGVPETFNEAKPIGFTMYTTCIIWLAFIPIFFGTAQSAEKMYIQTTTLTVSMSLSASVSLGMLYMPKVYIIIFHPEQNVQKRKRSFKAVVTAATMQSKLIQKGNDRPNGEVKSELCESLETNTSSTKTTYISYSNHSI
row,Compound,z-score
1,Cc1ccc([N+](=O)[O-])cc1NC(=S)NC(=O)c1ccco1,active: 7.69
2,CCCN(S(=O)(=O)c1ccc(OCC)cc1)S(=O)(=O)c1cccs1,0.473
3,O=C(NCc1ccc(F)cc1)C1CCN(S(=O)(=O)c2ccc3c(c2)OCCCO3)CC1,-0.294
4,O=C(c1ccc2c(=O)n3c(nc2c1)CCCCC3)N1CCN(C(c2ccccc2)c2ccccc2)CC1,-0.421
5,CN(c1ccc(C(=O)O)cc1)S(=O)(=O)c1ccc(Cl)cc1,-0.198
6,O=C(O)CCS(=O)(=O)c1cccc2cccnc12,-0.0363
7,CC1CCC(NC(=O)Cn2ncc3ccccc32)CC1 (stereo unspecified),-0.134
8,C/C(N)=C(/C#N)C(=O)COC(=O)CCSc1ccccc1,-0.31
9,COc1ccc(NC(=S)N(Cc2ccc(N(C)C)cc2)Cc2ccco2)cc1,0.23
10,CCOc1ccc(Nc2ncnc(N)n2)cc1,active: 4.23
11,CN(Cc1ccccc1)C(=O)CSc1nc2c(c(C(F)(F)F)n1)CCc1ccccc1-2,-0.0605
12,Clc1cccc(Cl)c1COn1nnc2ccccc21,-0.938
13,COc1ccc2[nH]c(=O)c(CN(Cc3ccccc3OC)Cc3nnnn3CC3CCCO3)cc2c1 (stereo unspecified),-0.28
14,C=CCn1c(=NC(=O)CN2C(=O)CCC2=O)sc2cc(S(N)(=O)=O)ccc21,-0.0734
15,Cc1cc(C)c2[nH]c(=S)cc(C)c2c1,active: 5.14
16,CCCC1S/C(=N/N=C/c2ccc(C)cc2)N(Cc2ccc(OC)cc2)C1=O (stereo unspecified),0.151
17,COC(=O)C(C)N1C(=O)S/C(=C/c2cc(C)n(C(C)C)c2C)C1=O (stereo unspecified),-0.406
18,CC(=O)c1cnc2cc(-c3ccc(C)cc3)nn2c1C,-0.0131
19,COc1cc(C(=O)NCCOc2ccccc2)c(Br)c(OC)c1OC,-0.025
20,COc1ccccc1NC(=S)NC(NC(=O)c1ccco1)C(Cl)(Cl)Cl (stereo unspecified),-0.246
21,CCn1c(N)c(C(=O)NCCOC)sc1=S,0.268
22,CC(=O)/C(=N/Nc1ccccc1)N1CCOCC1,-0.0701
23,CCN(CC)C(=O)c1cnn(-c2ccccc2)c1NC(=O)c1ccccc1F,-0.221
24,O=C(CSc1nc(-c2ccco2)cc(C(F)(F)F)n1)NCC1CCCO1 (stereo unspecified),-0.0881

row,Compound,z-score
1,Cn1c(=O)c2c(ncn2CC(=O)NC(C)(C)C)n(C)c1=O,0.319
2,COc1cccc(C2C(C(C)=O)=C(O)C(=O)N2CCc2c[nH]c3ccccc23)c1 (stereo unspecified),-0.32
3,O=C(CN1C(=O)COc2ccc(Cl)cc21)N1CCc2ccccc21,0.45
4,CNc1nc(Cl)nc(NC(C)(C)C)n1,active: 7.77
5,CN(C)S(=O)(=O)c1cc(NC(=O)CN2C(=O)NC3(CCCc4ccccc43)C2=O)ccc1Cl (stereo unspecified),0.654
6,COc1c(Cl)cc(Cl)cc1C(=O)Nc1ccc(NC(=O)c2cccs2)cc1,0.021
7,COCC(=O)n1nc(NCc2ccc(OC)cc2)nc1NCc1ccc(OC)cc1,-0.00999
8,N=c1c2c(-c3ccccc3)c(-c3ccccc3)oc2ncn1Cc1ccco1,-0.188
9,COCCNC(=O)c1ccccc1NC(=O)c1ccc(Cl)c(S(=O)(=O)Nc2ccc(C)cc2C)c1,-0.243
10,COC(=O)c1[nH]c2ccccc2c1NC(=O)c1ccccc1[N+](=O)[O-],-0.351
11,CC1CCCC(C)N1/N=C/c1cc(Br)c(O)c(Br)c1 (stereo unspecified),-0.155
12,C=CCn1c(SCC(=O)c2ccc(Br)cc2)nnc1C(CC(C)C)NC(=O)c1cccs1 (stereo unspecified),-0.413
13,C=CCn1c(C#N)c(N)sc1=N,0.591
14,CNS(=O)(=O)c1cc(C(=O)OCC(=O)NC2CCCc3ccccc32)ccc1Cl (stereo unspecified),-0.391
15,CCOC(=O)CN(C(=O)c1ccccc1)c1ccccc1C,-0.114
16,CCn1c(CNc2ccc(F)cc2)nnc1SCC(=O)Nc1ccc(OC)cc1OC,0.601
17,CCCc1nc(SCC(=O)Nc2nnc(CC)s2)c2c(C)c(C)sc2n1,-0.42
18,CCCOc1ccc(C(=O)NNC(=S)NC(=O)CC)cc1,active: 3.01
19,O=C(CSc1nc(O)cc(=O)n1-c1ccccc1)N1CCCCC1,active: 4.46
20,O=C1c2cccc3cc(Br)cc(c23)C(=O)N1Nc1ccccc1,-0.392
21,Cc1cc(C)cc(NC(=O)CCNS(=O)(=O)c2ccc3c(c2)oc(=O)n3C)c1,-0.318
22,CCn1c(=S)[nH]c2cc(C(=O)OC)ccc2c1=O,active: 7.77
23,COc1ccc(-c2coc3cc(O)ccc3c2=O)cc1OC,-1.04
24,OCCNCCCOc1ccc(Cl)cc1Br,0.496

row,Compound,z-score
1,O=C(NCC(=O)N(Cc1ccccc1)C(C(=O)NC1CCCCC1)c1ccco1)c1ccco1 (stereo unspecified),0.0119
2,CCCCc1ccc(-c2ccc(C)cc2O)nc1,0.053
3,O=C(NN=C1CCCCCCC1)c1ccccn1,0.0607
4,Cn1c(=O)c2c(nc(CN3CCN(c4cccc(Cl)c4)CC3)n2CCc2ccccc2)n(C)c1=O,0.0762
5,O=S(=O)(NCCc1ccccn1)c1cccs1,0.136
6,COc1ccc(C2C(C(=O)c3ccco3)=C(O)C(=O)N2Cc2cccnc2)cc1OC (stereo unspecified),0.59
7,O=C(O)c1ccc2c(c1)C(=O)N(Cc1ccccc1)C2=O,-1
8,COC(=O)CCc1c(C)c(C#N)c2nc3ccccc3n2c1N1CCCC1,-0.478
9,CSc1ccccc1NC(=O)c1cnccn1,1.79
10,Cc1ccc(NC(=S)NC2CCCC2)cc1,-0.118
11,CCOC(=O)/C(N=Nc1c(Br)cc(Br)cc1Br)=C(\C)O,0.239
12,COc1cccc(NC(=O)CSc2ccccn2)c1,0.192
13,O=C(O)c1cn(-c2ccc(F)c(F)c2)c2c(F)c(F)c(F)c(F)c2c1=O,-0.0414
14,CSCCC(NC(=O)C1CCC(C)CC1)C(=O)NCc1ccco1 (stereo unspecified),-0.0295
15,Cc1ccccc1OCC(=O)Nc1ccc(N2CCN(S(C)(=O)=O)CC2)cc1,0.137
16,O=c1c2ccccc2c(C=Nc2cccc(S(=O)(=O)NCc3ccco3)c2)c(O)n1-c1ccc(Cl)cn1,-0.105
17,NC(=O)c1ccsc1NC(=O)COc1ccccc1,0.861
18,N#Cc1c(/N=C/c2cc(Br)cs2)sc2c1CCC2,-0.0914
19,O=C(NNC(=O)c1ccccc1O)c1ccc(Cl)cc1,-0.389
20,COc1ccc(/C=C(\C#N)C(=O)NCCc2ccccc2)cc1OCc1ccccc1,-0.0863
21,Cc1cc(NC(=O)COC(=O)C(Cc2ccccc2)NC(=O)c2ccco2)no1 (stereo unspecified),-1.25
22,CCC(Sc1nc(C)cc(=O)[nH]1)C(=O)Nc1sc2c(c1C#N)CCCC2 (stereo unspecified),0.29
23,COc1ccc(CCCc2nnc(SCC(=O)Nc3ccc(C)c(C)c3)o2)cc1,-0.276
